The text below walks through data of the antibiotic and cytotoxicity screens of Wong et al. (2023).

In one test the test system is HSkMC. Briefly: cytotoxicity call (relative viability < 0.9). The settings on record: 10 µM.
A further test relates to HepG2. Briefly: cytotoxicity call (relative viability < 0.9). The conditions noted are these: 10 µM.
A further test has as its system S. aureus RN4220. Briefly: growth inhibition call (relative growth <= 0.2). The conditions noted are these: 50 µM.

Some of the results follow.

For the compound `COC(=O)[C@@H](Cc1ccccc1)N[C@H](/C=C/C1CC1)[C@@H](O)CCn1cc(-c2ccc(C(=O)NO)cc2)nn1`, the cytotoxicity call in the test on HSkMC was “inactive”. Moreover, in the test with HepG2, the cytotoxicity call was “active”. For the same compound, the growth inhibition call with S. aureus RN4220 was “inactive”.

With `N#Cc1ncccn1`, the cytotoxicity call in the test on HSkMC and in the test with HepG2 was “inactive” each time. Besides, in the test with S. aureus RN4220, the growth inhibition call was “inactive”.

For the compound `COc1ccc(CN(C)C[C@H]2OCCCC[C@@H](C)Oc3ccc(NC(=O)c4ccccc4)cc3C(=O)N([C@@H](C)CO)C[C@H]2C)cc1`, the cytotoxicity call with HSkMC and with HepG2 was “inactive” in each case. In the test on S. aureus RN4220, the growth inhibition call was “inactive”.

On to `CCS(=O)(=O)N1C[C@]2(CCN(CC2)S(=O)(=O)c2cccs2)c2c(n(c3cc(ccc23)OC)C)[C@H]1CO`, for which the cytotoxicity call in the test with HSkMC and in the test on HepG2 was “inactive” in each case. Besides, the growth inhibition call with S. aureus RN4220 is “inactive”.

On to `C[C@H]1CCCCO[C@H](CN(C)Cc2ccc(C(=O)O)cc2)[C@@H](C)CN([C@@H](C)CO)C(=O)c2cc(NC(=O)Nc3cccc4ccccc34)ccc2O1`, for which the cytotoxicity call in the test on HSkMC and in the test with HepG2 was “inactive” in each case. Moreover, the growth inhibition call in the test on S. aureus RN4220 is “inactive”.

As to `CN1CCN(C(=O)C[C@@H]2CC[C@H]3[C@@H](COC[C@@H](O)CN3C(=O)Nc3ccc4c(c3)OCO4)O2)CC1`, the cytotoxicity call in the test on HSkMC (human skeletal muscle cells) and with HepG2 was “inactive” in each case. Moreover, the growth inhibition call in the test with S. aureus RN4220 is “inactive”.

As to `C/C=C/c1ccc2c(c1)O[C@@H](CN(C)C(=O)c1ccc3c(c1)OCO3)[C@@H](C)CN([C@H](C)CO)S2(=O)=O`, the cytotoxicity call with HSkMC and with HepG2 was “inactive” throughout. The growth inhibition call in the test with S. aureus RN4220 is “inactive”.

With `COC(=O)[C@H](Cc1ccccc1)N1CC2=C[C@@H]([C@@H](O)CCn3cc(-c4ccc(C(=O)NO)s4)nn3)n3c(=O)n(C)c(=O)n3[C@@H]2[C@@H](C2CC2)O1`, the cytotoxicity call in the test with HSkMC and in the test on HepG2 was “inactive” each time. Further, the growth inhibition call with S. aureus RN4220 was “inactive”.

In the case of `C[C@H]1CCCCO[C@H](CN(C)Cc2ccc3c(c2)OCO3)[C@@H](C)CN([C@@H](C)CO)C(=O)c2cc(NS(=O)(=O)c3ccc(F)cc3)ccc2O1`, the cytotoxicity call in the test with HSkMC and in the test on HepG2 was “inactive” each time. In addition, in the test with S. aureus RN4220, the growth inhibition call was “inactive”.
